Structures are written as SMILES. The whole screen tested about 150,000 compounds, of which about 540 (0.36%) showed an effect of 50% or more. Some of the results follow.

The experiment has as its system Plasmodium falciparum. The experiment in a line: Primary screen in NF54 nanoGlo assay, in single point, at 2uM, 72h; a lower Z score goes with more inhibition. It is filed as functional, Erythrocyte. Conditions: timepoint 72 hour.
On to `COCc1nc(Cn2cnn(C(C)(C)C)c2=O)cs1`, for which the % Inhibition – broadly, the relative decrease from the control value, in per cent – was -11% and the Z score is 1.05.
The like results for `O=C(Nc1cccc2nsnc12)C1CCN(c2cc(C3CC3)ncn2)CC1` were, in that order, -4% and 0.79.
The like results for `CC(C)n1cncc1CN[C@@H]1CCCC[C@H]1OC(F)F` were, in that order, 1% and -0.15.
The like results for `CC(C)CNC(=O)NCCn1nnc2cc(C(=O)NC3CCCC3)ccc21` were, in that order, -3% and 0.45.
With `O[C@@H](CNc1nc(C(F)(F)F)cs1)CN1CCOCC1`, the “% Inhibition” value is recorded as 18% and the Z score is listed as -2.31.
For `CC(OC1CCCCCC1)C(=O)N1CCCC(CCC(=O)O)C1` (stereo not drawn), in that order: -1% and 0.12.
For the compound `Cc1nc2cc(NC(=O)c3ccccn3)ccc2o1`, the “% Inhibition” value stood at 11% and the Z score is given as -1.99.
On to `CC(C)CN1Cc2cccc(NS(=O)(=O)c3ccc4c(c3)OCCO4)c2C1`, for which the “% Inhibition” value was -5% and the Z score is 0.54.
In the case of `COC1CCN(C(=O)NCCCCc2ccc(F)c(F)c2)C(C)C1` (stereo not drawn), the “% Inhibition” value is reported as -13% and the Z score amounted to 2.22.
The like results for `CS(=O)(=O)CCC(=O)N[C@@H]1CC=CCC1` were, in that order, -3% and 0.43.
Regarding `C[C@H]1COC(C)(C)CN1Cc1cnc2n1CCC2`, the “% Inhibition” value is -10% and the Z score is given as 1.52.
The like results for `NS(=O)(=O)c1cnc(N[C@H]2CCc3ccc(F)cc32)s1` were, in that order, -3% and 0.33.
For `Cn1nc(C(=O)N2CCNC(=O)c3ccccc32)cc1C(F)F`, in that order: -6% and 0.7.
The like results for `Cc1c(Br)cccc1CCNC(=O)c1ncnn1C` were, in that order, -10% and 1.85.
For the compound `CCCN1C(=O)c2ccccc2C(C(=O)NCc2ccccn2)C1c1cc(OC)c(OC)c(OC)c1` (stereo not drawn), the “% Inhibition” value was found to be 12% and the Z score is reported as -1.83.
The like results for `NS(=O)(=O)C[C@H]1CCCN1C(=O)Nc1ccccn1` were, in that order, 7% and -0.86.
For `CN(C)S(=O)(=O)C1CCCN(C(=O)CC2COc3ccccc3O2)C1` (stereo not drawn), in that order: -12% and 1.26.
On to `CC(C)[C@H]1OCC[C@@H]1CNCc1cc[nH]n1`, for which the “% Inhibition” value is -1% and the Z score is recorded as 0.14.
The like results for `CCn1cc(CC(=O)N2CCC3(CC2)C(C)=Nc2ccccc23)nn1` were, in that order, -14% and 1.51.
With `Cc1cn2ccc(C(=O)N3Cc4ncccc4N4CCC[C@H]4C3)cc2n1`, the “% Inhibition” value is -17% and the Z score is 2.93.
Turning to `Cc1nn(Cc2c(C(=O)N3CCC(C)(c4noc(-c5cccnc5)n4)CC3)noc2C)c(C)c1C`, the “% Inhibition” value is reported as -16% and the Z score is 2.02.
The like results for `COc1ccc2[nH]c(-c3nc(CCN(C)C(=O)c4ccc(F)cc4)no3)cc2c1` were, in that order, -6% and 1.06.
The like results for `Cc1cc(O)ccc1C(=O)N1CCC2(CC1)CC(=O)NC(=O)C2` were, in that order, -7% and 1.27.
As for `COc1ccc(CNC(=O)Cn2c(C)cc3nc4n(c(=O)c32)CCC4)cc1`, the “% Inhibition” value was -4% and the Z score is reported as 0.57.

Source of the values: ChEMBL document CHEMBL4888484, “Replenishing the malaria drug discovery pipeline: Screening and hit evaluation of the MMV Hit Generation Library 1 (HGL1) against asexual blood stage Plasmodium falciparum ,using a nano luciferase reporter read-out” (2022).
